The full ranking holds about 13,000 compounds; the median of “IFI” is about 4, and the highest 2% start at about 17. The list shows a part of the results.
Test: GSK_TCMDC: Inhibition Frequency Index (IFI). The number of non-kinase HTS assays where a compound showed > 50 % inhibition, expressed as a percentage of the number of such assays in which the compound was tested (-0 is zero)
Assay type: functional
With CC(C)(CNCc1ccc(C(F)(F)F)cc1)c1nc(-c2ccc(Cl)c(O)c2)c(-c2ccncc2)[nH]1 the IFI was 7.3%.
CCCCCCN1CCCN(Cc2cccc(NC(=O)c3cc4ccccc4s3)c2)CC1 showed an IFI of 10.2%.
COCCN(C)CCCOc1cc2c(cc1OC)ncn2-c1cc(OCc2ccccc2C(F)(F)F)c(C(N)=O)s1 showed an IFI of 9.22%.
O=C(Nc1ccc(-c2ccc(CN3CCNCC3)cc2)cc1)c1cccc(Cl)c1 gave an IFI of 12.1%.
With COc1cc(Cc2cnc(N)nc2N)cc(OCC(C)(C)C(=O)O)c1OC the IFI was 0.72%.
Work on CC(CCCCC(=O)Nc1ccc(CC(C)NCCc2cccc(Cl)c2)cc1)NCCc1cccc(Cl)c1 (stereo not given) yielded an IFI of 4.29%.
Cc1cc(NCC(c2ccccc2)c2ccccc2)nc(NCC2CCCCC2)n1 showed an IFI of 16%.
In the case of CN(c1ccc(NC(=O)Nc2cccc(Cl)c2)cc1)c1ccnc(N)n1, the IFI is reported as 6.9%.
Work on CCc1cn2c3c(cc(C(=O)N[C@@H](Cc4ccccc4)[C@H](O)CNC(C)C)cc13)N(C)S(=O)(=O)C2 yielded an IFI of 2.11%.
CCc1ccc(CN2CCC(NC(=O)c3cc(-c4ccc(N(C)C)cc4)cs3)C2)cc1 (stereo not given) showed an IFI of 10.2%.
Cc1cc(N)c2cc(NC(=O)/C=C/c3ccccc3Cl)ccc2n1 showed an IFI of 10.3%.
Work on COc1cccc(OC)c1CN1CCC(N(C)CCCCCCCCCN2CCC(OC(=O)Nc3ccccc3-c3ccccc3)CC2)CC1 yielded an IFI of 17.3%.
For N#Cc1ccc2c(c1)CCN(CCC1CCC(NC(=O)c3ccc(-c4ccccc4)s3)CC1)CC2 (stereo not given), the IFI was 0.72%.
In the case of CCCN1CCN(c2cc(NCC)c3c4c(onc24)-c2ccccc2C3=O)CC1, the IFI is reported as 1.41%.
In the case of CN1CCN(Cc2ccc(-c3ccc4c(Nc5ccc(Oc6ccccc6)cc5)ccnc4c3)o2)CC1, the IFI is reported as 13%.
Cc1cccc2nc(-c3ccc(-c4cccc(NC(=O)CCc5c[nH]cn5)c4)cc3)[nH]c12 showed an IFI of 2.61%.
For c1cc(CNCC2CCCO2)cc(-c2ccc(-c3nc4ccccc4[nH]3)s2)c1 (stereo not given), the IFI was 2.94%.
For CC(=O)OC[C@H]1O[C@@H](C#Cc2ccccc2)[C@H](OC(C)=O)[C@@H](OC(C)=O)[C@@H]1OC(C)=O, the IFI was 3.55%.
Fc1ccc2[nH]c(-c3ccc(-c4ccc(CNCCc5ccncc5)cc4)s3)nc2c1 showed an IFI of 11.9%.
N#Cc1ccc(N2CCN(Cc3cccc(-c4ccc(-c5nc6ccccc6[nH]5)cc4)c3)CC2)nc1 gave an IFI of 13.7%.
Cc1nc(C)c(-c2ccc(Br)cc2)c(O)c1Br showed an IFI of -0%.
COc1ccc(S(=O)(=O)N(CC(=O)NN=C(C)c2cccs2)c2cc(C)cc(C)c2)cc1OC showed an IFI of -0%.
With COc1ccc(CN(C)C(=O)CCNS(=O)(=O)c2ccc3c(c2)OCCCO3)cc1F the IFI was 0%.
Work on CNC(=S)NCc1cnc2ccccn12 yielded an IFI of 0.71%.
Cc1noc(C)c1-c1ccc2c(Nc3ccccc3C(C)(C)C)c(C(=O)NCc3cccc4ccccc34)cnc2c1 gave an IFI of -0%.
Compound Cc1ccc(-c2noc(COc3ccccc3C(=O)NC3CCCC3)n2)cc1 has an IFI of 2.33%.
c1ccc(CNc2nc(NCCN3CCCCC3)nc3ccccc23)cc1 gave an IFI of 0%.
c1cc(CNCC2CCCO2)cc(-c2csc(-c3nc4ccccc4[nH]3)c2)c1 (stereo not given) showed an IFI of 1%.
Work on COc1cccc(C(=O)NC(NC(=S)Nc2ccc(OC)cc2[N+](=O)[O-])C(Cl)(Cl)Cl)c1 (stereo not given) yielded an IFI of 1.47%.
For c1cc(Nc2nccc(-c3cnn4ncccc34)n2)cc(-c2cnco2)c1, the IFI was 9.23%.
Work on COc1cccc(CCN(Cc2ccccc2-c2ccc(CNC3CC(C)(C)NC(C)(C)C3)cc2)C(=O)NC2CCCCC2)c1 yielded an IFI of 12.9%.
For Cc1cc(=NN=Cc2cccc(F)c2)c2cc(F)ccc2[nH]1, the IFI was 1.46%.
In the case of Cc1cccc2nc(-c3ccc(-c4cccc(CN5CCC(CCN6CCCCC6)CC5)c4)s3)[nH]c12, the IFI is reported as 7.04%.
In the case of Cc1ccc2nc(C)cc(N/N=C/c3ccccc3[N+](=O)[O-])c2c1, the IFI is reported as 4.35%.
In the case of CCNc1cc(C)nc(Nc2ccc(NS(=O)(=O)c3ccccc3)cc2)n1, the IFI is reported as 20.4%.
Work on CCNc1cc(-c2cccc(OC)c2)nc(Nc2ccc(F)cc2)n1 yielded an IFI of 2.82%.
Work on c1cc(CNCCc2ccncc2)cc(-c2ccc(-c3nc4ccccc4[nH]3)s2)c1 yielded an IFI of 2.02%.
O=C(Nc1ccc(-c2nc3ccccc3[nH]2)cc1)c1ccc(Cl)c([N+](=O)[O-])c1 gave an IFI of 2.31%.
In the case of CN(C)CCN(C)Cc1ccc(-c2ccc3c(Nc4ccc(Oc5ccccc5)cc4)ccnc3c2)o1, the IFI is reported as 14.9%.
Cc1cc(N[C@@H](Cc2ccccc2)C(=O)NCCCOC(C)C)nc(NCC2CCCCC2)n1 gave an IFI of 4.88%.
Cc1cc(C)c(-c2n[nH]c3c2C(c2cccc(Cl)c2)N(Cc2ccco2)C3=O)c(O)c1 (stereo not given) gave an IFI of 13%.
CC(C)c1sc(N2CCN(C)CC2)nc1C(=O)Nc1ccc(F)cc1C(F)(F)F showed an IFI of 5.77%.
In the case of c1ccc2c(c1)CN(Cc1ccsc1)CC1(CCN(Cc3c[nH]c4cnccc34)CC1)O2, the IFI is reported as 3.17%.
Cn1cnc(CCNC(=O)c2ccc(-c3ccc(-c4nc5cc(C(F)(F)F)ccc5[nH]4)s3)cc2)c1 showed an IFI of 3.81%.
For Cc1nnc2c(NC(=O)NC3CCCC3)cc3ccc(-c4cccc(CN5CCN(C)CC5)c4)cc3n12, the IFI was 8.33%.
